{"source": "patent US9499554B2", "about": "“Anti-influenza compositions and methods” (priority 2013, dated 2016)", "origin": "cited, not measured here", "tested_on": "influenza virus", "settings": "cited from earlier work"}
{"smiles": "NC(=O)c1nc(F)cnc1O", "note": "[T-705, 6-fluoro-3-hydroxy-2-pyrazinecarboxamide]", "values": [{"measurement": "antiviral activity against multiple strains of influenza virus infection", "result": "potent and broad spectrum antiviral activity"}]}
